Measurements: the supplement of paper PMC4604168 (melanoma cell lines)
The list shows a part of the results. Single values are uncertain, as repeats are few or missing.

The compounds below were run on RVH-421 (assay: cell count relative to DMSO control; melanoma cells; higher = more viable cells). Conditions: library dose: low library concentration; 72 h.
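Also: cell number obtained by counting DAPI-stained nuclei in high-throughput microscope images with image analysis software, screen run in 1,536-well plates.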

Q: `COc1cc([C@@H]2c3cc4c(cc3[C@@H](O[C@@H]3O[C@@H]5CO[C@@H](C)O[C@H]5[C@H](O)[C@H]3O)[C@H]3COC(=O)[C@H]23)OCO4)cc(OC)c1O` [etoposide] + CN(NC(=O)CC(=O)NN(C)C(=S)c1ccccc1)C(=S)c1ccccc1 [STA4783] (first compound 0.02 µM, partner dose 0.006 µM) was tested. Which cell count did it give?
A: Its cell count is 67.8%.

Q: With `C[C@]1(O)C[C@@H](c2nc(-c3ccc4ccc(-c5ccccc5)nc4c3)c3c(N)nccn32)C1` + Cc1cc([N+](=O)[O-])ccc1NS(=O)(=O)c1cc(Cl)ccc1Cl [FH535] (first compound 0.4 µM, partner dose 1 µM) as the compound, how does the cell count read?
A: Its cell count is 115%.

Q: `CCN(CC)CCNC(=O)c1c(C)[nH]c(/C=C2\C(=O)Nc3ccc(F)cc32)c1C` [sunitinib] + COC(=O)c1sccc1S(=O)(=O)Nc1ccc(Nc2ccccc2)cc1OC [GSK0660] (first compound 0.4 µM, partner dose 1 µM) was tested. Which cell count did it give?
A: Its cell count is 124%.

Q: With `Cn1cnc2c(F)c(Nc3ccc(Br)cc3Cl)c(C(=O)NOCCO)cc21` [selumetinib] + COc1cc2c(Oc3ccc4[nH]c(C)cc4c3F)ncnc2cc1OCCCN1CCCC1 [cediranib] (first compound 0.015 µM, partner dose 0.4 µM) as the compound, how does the cell count read?
A: Its cell count is 76.1%.

Q: How did the cell count turn out when `Cn1cnc2c(F)c(Nc3ccc(Br)cc3Cl)c(C(=O)NOCCO)cc21` [selumetinib] + COc1cc2ncnc(Nc3ccc(Oc4ccccc4)cc3)c2cc1OC [SrcI1] (first compound 0.015 µM, partner dose 2 µM) was run?
A: Its cell count is 90.3%.

Q: For `Cn1cnc2c(F)c(Nc3ccc(Br)cc3Cl)c(C(=O)NOCCO)cc21` [selumetinib] + NC(=O)Nc1cc(-c2cccc(F)c2)sc1C(=O)N[C@H]1CCCNC1 [AZD7762] (first compound 0.015 µM, partner dose 0.02 µM), which cell count is on record?
A: Its cell count is 95%.

Q: Which cell count does the source give for `COc1cc([C@@H]2c3cc4c(cc3[C@@H](O[C@@H]3O[C@@H]5CO[C@@H](C)O[C@H]5[C@H](O)[C@H]3O)[C@H]3COC(=O)[C@H]23)OCO4)cc(OC)c1O` [etoposide] + Cn1cncc1[C@@](N)(c1ccc(Cl)cc1)c1ccc2c(c1)c(-c1cccc(Cl)c1)cc(=O)n2C [tipifarnib] (first compound 0.02 µM, partner dose 0.01 µM) here?
A: Its cell count is 52.3%.

Q: With `CCN(CC)CCNC(=O)c1c(C)[nH]c(/C=C2\C(=O)Nc3ccc(F)cc32)c1C` [sunitinib] + O=C(CCCCCCC(=O)Nc1ccccc1)NO [vorinostat] (first compound 0.4 µM, partner dose 0.08 µM) as the compound, how does the cell count read?
A: Its cell count is 129%.

Q: `COc1cc([C@@H]2c3cc4c(cc3[C@@H](O[C@@H]3O[C@@H]5CO[C@@H](C)O[C@H]5[C@H](O)[C@H]3O)[C@H]3COC(=O)[C@H]23)OCO4)cc(OC)c1O` [etoposide] + Cc1cc([N+](=O)[O-])ccc1NS(=O)(=O)c1cc(Cl)ccc1Cl [FH535] (first compound 0.02 µM, partner dose 1 µM) was tested. Which cell count did it give?
A: The cell count was 101%.
